From the supplement of paper PMC10126150
Sequences with one replicate were seen in a single cluster, so their values are uncertain.

Test system: ATP
Assay: switch fluorescence ratio, 500 uM ATP over buffer (Cy3 cluster intensity, sum of 5 cycles each) (fold (ratio)); higher = stronger signal-on switching upon ATP binding; sequences stand for … in TCGTCGGCAGCGTCAGATGTGTATAAGAGACAGTTTTTTTTTTTTTTTTTTTTTTTTT…TC
Conditions: aptamer strand: ATP DNA aptamer (quencher-CACCTGGGGGAGTATTGCGGAGGAAGG + anchor), 100 nM annealed; ATP concentration: 500 uM; one replicate
Procedure, shortened: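 Five buffer/ATP imaging cycles were run on Cy3-labelled switching-strand clusters on a modified Illumina MiSeq flow-cell, with NaOH stripping and re-annealing between cycles. In each cycle, clusters annealed to 100 nM quencher-labelled ATP aptamer were imaged in selection buffer, then after 15 min with 500 uM ATP at 22 °C. Per cluster, the fluorescence ratio is summed target-cycle over summed buffer-cycle Cy3 intensity, averaged per switch-domain sequence. Only clusters within 100-1000 RFU were kept.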
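Note: ATP exposure 15 min at 22 °C before imaging.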

Sequence	switch fluorescence ratio
ACGGTATCGC	1.05
TGATGAGGTG	0.994
GATCCGGACA	1.01
GATAGCCACG	1.04
GCATTACTAA	1.27
TTCACCGTTG	1.01
CAAGCAGATT	1
CCTGTGGCCA	1.01
CTAATGGGGG	0.962
GCCCCGTG	1.08
GTAGCGTGAT	1.02
TTTGCGATTG	1.02
GCGTTGCGTA	1.01
TGACAGCTAA	1.13
GCACGTAGGT	1.27
GCTGTAATGC	1.19
GTTCGGAAGC	1.11
GGCGAGTGAT	1.02
TCGGGGTGAG	0.986
GGTCCGGTCC	1.03
ATTTTGGAAC	1.03
TGTGCAAAAC	1.7
TCAGGCTGTA	1.09

Sequence	switch fluorescence ratio
CGAGGTACTC	1.05
GCACTAAACA	1.06
GAAGCATCGG	1.15
CATTAGGCC	1.01
TGGCCTTTCA	1.01
CAGGTACGG	1
ACCTGGAGCC	1.47
TTCGACCACA	1.1
GATTTGATAC	1.07
CTCGACGGCA	1.14
GATTGTCGAA	0.971
TTAAATTGTA	1.03
TAGATTTGCT	0.971
CATTTAGCTA	1.04
TCTATTGTGG	0.998
GTTAGTGCGG	0.968
TACATTAGTA	0.991
CACTTACTTT	1.22
TTATCGAAAG	1.02
GTACTTATTG	0.996
AATCACCTGG	1.05
GGTTGATTGT	1.07
AAATCATCGC	1.07

Sequence	switch fluorescence ratio
TTGGGCACCC	0.982
CCACAGATGG	1.13
CGAGCGTGAC	1.44
TCACGGTCCG	1.06
ACAAACGATC	1.17
CCAGATACGC	1.29
ATTTATTCAA	1.22
CTTAAAATTA	0.999
GTTAGATCTA	1.01
CCTTAGCCCG	1.28
GAGTTTCTTC	1.01
ATCTCGTTTT	0.987
GCCTCAACTT	1.16
TACAAGGGGC	0.995
TGCGGTTGCA	1.01
CAGGGGTGCC	1.01
TTGCAGCCGA	1.02
AATAAGCGTA	0.978
TTGTAAGTA	0.994
CGAGCTGTCC	1.1
AGCACGGTTT	1.01
GTATTCACTT	1.02
ATGCAAGGTA	0.998

Sequence	switch fluorescence ratio
GAATCGTGTT	0.978
TTCGACCAT	1.02
TTCAACAGG	1.2
CCCACTATAA	1.1
GTTGGGCGTG	1.01
TTGAGAGAAC	0.983
GCTGTTGGC	1.02
CAGTAGTAC	1.58
CCGTACCTCT	1.09
TGCAACTTGC	1.07
CACAAACAGT	1.05
TCTAATAAGG	0.959
GCGGGAACAG	0.964
CGGAGATCAT	1.03
GGGGAGGCTT	0.989
GATGGAGATC	1.04
GGGTGACTAA	1.01
GAGTTACTG	1.13
TGTAAATT	0.983
TTTCCCCTCC	1.2
TAAGTATGC	0.975
GATCTGCAGG	1.23
AATCCCGTG	1

Sequence	switch fluorescence ratio
GGATTGGGGC	0.994
AATCGTACTC	1.11
AGGGCGGCCA	0.981
GATTAGAATT	0.999
ATTAAGTAGT	1
CCAACGACCA	1.6
TAATAGGGAC	1.02
ATCCTATAAG	1.02
GGTTGTAACG	0.965
CAGAGGGAAC	1.06
CAGATATGCT	1.04
ATGAGGATG	0.978
TTGTATTGAG	1
AACCCCGGGT	1.07
GGTCGTTCCC	0.973
GAGCTGTCCG	1.02
GCACTGAAAC	1.33
GGTAAGGCTC	0.928
TGGGGCGTGT	1.02
TGGGGCCTAT	0.936
ATGCGGGCTT	1.04
ATCACCAGTT	1.02
CAGGAGATGG	1.06

Sequence	switch fluorescence ratio
CAATCATAAT	1.11
GGAACGCAAG	1.14
GGGTGGGACA	1.01
GGTCAGATTG	0.994
TGTTTCAATA	1.01
CTGATTTATA	0.992
ACCAGGGACC	1.01
AGTTCCAGAT	1.03
TTACTCTAAA	1.07
TTGTCCCCCT	0.965
TCACGATCCG	1.07
TTTATTGGAG	1.03
ATCGGGTTGT	0.988
CACCTGGGCT	1.04
GCTACTGCCT	0.989
ACATAGGGTC	0.981
GTTTATCCTG	0.971
TGGGTCGCGA	0.989
TTCGACCTA	1.1
AGGATGCCGT	1.05
GCCGGACCGA	1.01
CTAAAAGGG	1.01
AGCTAATTAG	1.03

Sequence	switch fluorescence ratio
TCTGGAGGTC	1.07
CAGCTTCCTG	1.09
TGGCAGCACG	1.02
TTCCTTGGAC	1.07
GAGACGGGCA	1.04
AGTTTGAACA	1.05
GGGTATTTTC	1
AGAATATTGC	1.02
AGCTAGTACC	1.11
GAGTGATACC	0.993
GCCAGTACTG	0.98
TCGGTTAATT	1.01
TCTCTCAATG	1.29
TAATTCAGGC	0.97
AGGTGGCTTG	1.01
CTGTTTAATA	0.95
GAAATGCAGG	1.09
CGTAAATATT	0.968
GCACTATGGG	0.981
